Laboratory results taken from article PMC4336329 (PLoS ONE, 2015).
In all, about 310,000 compounds went through this assay and about 14,000 (4.5%) showed an effect of 50% or more. Effects have a minus sign here. The list shows a part of the results.

Molecular target: human ether-à-go-go-related gene (hERG) potassium channel (human, UniProt Q12809)
Test: primary screen, population patch clamp on CHO cells stably expressing hERG
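Note: peak tail current of the secondary pulse compared with the same well before compound.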

Sequence of human ether-à-go-go-related gene (hERG) potassium channel (Q12809 whole entry, looked up): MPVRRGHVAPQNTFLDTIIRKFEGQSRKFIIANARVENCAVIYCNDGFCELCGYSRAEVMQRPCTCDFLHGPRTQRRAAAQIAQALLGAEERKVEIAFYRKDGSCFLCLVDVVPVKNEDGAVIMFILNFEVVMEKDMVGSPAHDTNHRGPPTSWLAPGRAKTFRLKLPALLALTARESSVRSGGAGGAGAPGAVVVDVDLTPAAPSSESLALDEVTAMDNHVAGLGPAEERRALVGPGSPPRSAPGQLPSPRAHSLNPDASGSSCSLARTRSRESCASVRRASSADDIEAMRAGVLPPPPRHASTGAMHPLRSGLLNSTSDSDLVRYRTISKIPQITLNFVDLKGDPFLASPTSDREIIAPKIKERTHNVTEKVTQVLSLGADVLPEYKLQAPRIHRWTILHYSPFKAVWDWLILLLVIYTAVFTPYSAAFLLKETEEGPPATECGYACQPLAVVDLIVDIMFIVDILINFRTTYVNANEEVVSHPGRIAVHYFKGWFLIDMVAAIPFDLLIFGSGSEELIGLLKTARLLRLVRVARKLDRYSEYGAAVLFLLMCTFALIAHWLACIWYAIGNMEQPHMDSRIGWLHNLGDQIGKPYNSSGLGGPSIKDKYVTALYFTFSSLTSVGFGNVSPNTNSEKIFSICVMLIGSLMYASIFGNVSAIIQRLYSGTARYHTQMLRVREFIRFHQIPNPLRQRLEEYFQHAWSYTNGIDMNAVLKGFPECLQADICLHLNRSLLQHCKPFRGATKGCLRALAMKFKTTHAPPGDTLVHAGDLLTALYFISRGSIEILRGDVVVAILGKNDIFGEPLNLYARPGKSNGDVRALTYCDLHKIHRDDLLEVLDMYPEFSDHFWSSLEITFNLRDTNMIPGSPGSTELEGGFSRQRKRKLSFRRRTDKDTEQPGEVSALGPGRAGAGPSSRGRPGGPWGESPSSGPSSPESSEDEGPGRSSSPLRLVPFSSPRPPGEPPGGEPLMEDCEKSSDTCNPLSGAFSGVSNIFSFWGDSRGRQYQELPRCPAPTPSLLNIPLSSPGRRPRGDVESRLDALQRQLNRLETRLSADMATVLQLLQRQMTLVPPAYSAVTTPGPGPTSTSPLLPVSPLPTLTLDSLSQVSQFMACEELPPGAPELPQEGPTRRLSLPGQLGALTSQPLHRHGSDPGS

Row | SMILES | hERG current change (%, negative = inhibition) at 10uM [%]
1 | Cc1cccc2cc(CN(Cc3cccs3)S(=O)(=O)c3ccc4c(c3)OCCO4)c(=O)[nH]c12 | 1.41
2 | O=C(Nc1cc(SCCO)cc([N+](=O)[O-])c1)c1ccco1 | -16.4
3 | O=C(Nc1ccccc1Cl)c1cccc(NC(=O)C2C3CC4OC(=O)C2C4C3)c1 (stereo not drawn) | -3.6
4 | CC(C)C(=O)N1CCN(CCN=CC2=C(O)CC(c3ccco3)CC2=O)CC1 (stereo not drawn) | 0.717
5 | Cc1nn(-c2ccccc2)c(Cl)c1/C=N/NC(=O)c1[nH]ncc1Br | -5.51
6 | C=CCOC(=O)C1=C(C)NC2(O)c3ccccc3C(=O)C12O (stereo not drawn) | 0.217
7 | CCOc1ccc(NC(=O)N2C[C@H]3C[C@@H](C2)c2cccc(=O)n2C3)cc1 | 8.54
8 | Cc1ccccc1C(=O)Oc1ccc(Cl)cc1C(=S)N1CCOCC1 | 2.16
9 | O=C(NC1CC1)C1CCN(C2CCN(C(=O)c3c(F)cccc3Cl)CC2)CC1 | 13.3
10 | CCOc1ccccc1/C=N/NC(=O)c1nnn(-c2nonc2N)c1CN1CCC(C)CC1 | 9.08
11 | CCOC(=O)C(=O)Nc1cc(Cl)ccc1C | 8.06
12 | Cc1ccc(-n2c(C)cc(C(=O)COC(=O)C3=NNC(=O)CC3)c2C)cc1 | -42.3
13 | O=C(NC1CCN(Cc2ccccc2)CC1)c1ccc(Cl)cc1Cl | -75
14 | CCOC(=O)NC1(NCc2ccccc2)Oc2ccccc2O1 | -4.1
15 | Cc1ccc(C)c(OCC(=O)Nc2ccc3c(c2)OCO3)c1 | 1.44
16 | Cn1nnnc1SCc1ccc(CSc2nnnn2C)cc1 | 9.74
17 | COC(=O)C(Cc1ccc(O)cc1)NC(=O)CCNC(=O)c1ccco1 (stereo not drawn) | 18.8
18 | O=C(Cc1ccc([N+](=O)[O-])cc1)Nc1ccc2c(c1)OCO2 | -13.9
19 | CC(C)NC(=O)CC(=O)N/N=C/c1ccc(F)cc1 | -0.455
20 | COc1ccc(Oc2ccc(/C=C/C(=O)c3cccc(OC)c3)cc2[N+](=O)[O-])cc1 | -14
21 | Cc1nn(-c2ccc(F)cc2)c(C)c1/C=C/C(=O)N1CCNC(=O)C1 | 12.3
22 | C=CCNC(=S)NNC(=O)c1ccccc1 | 11.8
23 | CC1=Nn2c(nnc2-c2ccco2)SC1 | -3.87

Row | SMILES | hERG current change (%, negative = inhibition) at 10uM [%]
24 | Fc1cccc(NCc2ccoc2)c1 | -7.89
25 | Cc1ccnc(NC(=O)CCC(=O)N(CC(=O)NCCc2ccccc2)Cc2cccs2)c1 | -31
26 | O=C(N/N=C/c1ccc[nH]1)c1ccc([N+](=O)[O-])cc1 | -1.95
27 | COC(=O)c1cnc(SCC(=O)c2ccccc2)n1C | 5.4
28 | O=c1[nH]c2ccc(S(=O)(=O)N3CCCC3)cc2[nH]1 | 17.6
29 | CCC(CC)c1nnc(NC(=O)CCS(=O)(=O)Cc2ccccc2)s1 | 29.5
30 | N#Cc1cccc(NC(=O)CN2C(=O)NC3(CCCCCC3)C2=O)c1 | 5.61
31 | CCOc1cc(N2CCOCC2)c(OCC)cc1NC(=O)Cn1nc(C)c([N+](=O)[O-])c1C | -7.82
32 | Oc1c(C(c2cccs2)N2CCN(c3ccccc3)CC2)ccc2cccnc12 (stereo not drawn) | 7.17
33 | FC(F)(F)Oc1ccc(NC(=S)Nc2ccc(OC(F)(F)F)cc2)cc1 | 11
34 | O=C1C(Cc2ccc(Br)cc2)SC(=Nc2ccccc2)N1c1ccccc1 (stereo not drawn) | 5.55
35 | COC(=O)C(C(=O)OC)c1ncccc1[N+](=O)[O-] | -10.9
36 | CC(C)NC(=O)C1c2ccccc2Oc2ccccc21 | 16.7
37 | COC(=O)C(Cc1ccc(O)cc1)NC(=O)NC12CC3CC(CC(C3)C1)C2 (stereo not drawn) | 2.61
38 | Cl.O=C(O)CCNc1nc(-c2ccccc2)nc2ccccc12 | 2.17
39 | COCCNC(=O)c1ccc(CN2CCc3ccccc3C2)cc1 | 10.8
40 | O=C(CSc1nc2c(sc3ccccc32)c(=O)n1CCc1ccccc1)NCc1ccco1 | -8.32
41 | CCN(CC)CC(O)COCCC12CC3CC(CC(C3)C1)C2.Cl (stereo not drawn) | -31
42 | COc1ccc(CCN=C(N)C(C)c2ccccc2)cc1OC.Cl (stereo not drawn) | 11.4
43 | Cc1ccc(S(=O)(=O)N(C(=O)c2ccncc2)c2ccc(OC(=O)c3ccncc3)cc2)cc1 | -33.2
44 | COc1cc(C(=O)N2CCc3ccccc32)cc(OC)c1OC | 3.67
45 | Cc1ccc(C(=O)Nc2cccc(Oc3ccccc3)c2)o1 | -29
